{"source": "PubChem BioAssay AID1814", "about": "(Broad Institute, 2009)", "note": "Screen size: about 300,000 compounds; about 22,000 (7.3%) were called active. This list was built around the results that the source calls inconclusive (neither active nor inactive); the mix of calls is not that of the screen. No stated cut-off is given here; in the data, active means activity score below about -60%; inconclusive means mostly about -28% to -61%; inactive means positive scores.", "data": [{"assay": "Activators via SNCA 5'UTR binding, MLPCN (AID 1814)", "settings": "alpha-synuclein 5'UTR reporter, activators screen; active compounds read low; tested at 7.5 µM", "values": [{"smiles": "CCC/C(C)=N/NC(=O)c1ccccc1O", "activity score": "inconclusive: -52.9%"}, {"smiles": "CC1CCN(c2ccc(-c3cccs3)nn2)CC1", "activity score": "inactive: 102%"}, {"smiles": "Cc1cc(C(=O)N/N=C/c2cc(Br)ccc2OC(=O)c2ccc(Br)cc2)n[nH]1", "activity score": "inactive: 84%"}, {"smiles": "CC(C)COc1ccc(-c2nnc(-c3ccco3)o2)cc1", "activity score": "inactive: 86.1%"}, {"smiles": "O=C(Nc1ccccc1)N(CCc1nc2ccccc2[nH]1)C1CCCC1", "activity score": "inconclusive: -42.9%"}, {"smiles": "O=C(CCOc1ccccc1)Nc1ccccc1", "activity score": "inconclusive: -58.2%"}, {"smiles": "Nc1ccc2oc(-c3ccccc3Cl)nc2c1", "activity score": "inactive: 56.6%"}, {"smiles": "c1c2c(cc3sc(N4CCOCC4)nc13)OCCO2", "activity score": "inactive: 94.2%"}, {"smiles": "Brc1ccccc1OCCCN1CCOCC1", "activity score": "inconclusive: -61.3%"}, {"smiles": "CSc1ncccc1C(=O)Nc1nc2c(C)cccc2s1", "activity score": "inconclusive: -48.6%"}, {"smiles": "CCOc1ccc(S(=O)(=O)NCc2ccccn2)cc1NC(=O)c1ccccc1F", "activity score": "inactive: 75.6%"}, {"smiles": "Cn1c(NNC(=O)c2ccccc2F)cc(=O)n(C)c1=O", "activity score": "inactive: 45.7%"}, {"smiles": "COc1ccc(C2/C=C\\CN(C(=O)Nc3ccc(C(F)(F)F)cc3)CC(=O)N2Cc2ccc(F)cc2)cc1", "note": "(stereo unspecified)", "activity score": "inactive: 71.4%"}, {"smiles": "CCCc1nc2oc3c(NCc4ccccn4)ncnc3c2c2c1COC(C)(C)C2", "activity score": "inactive: 53%"}, {"smiles": "Cc1cc(SCC(=O)OC/C(O)=C(\\C#N)c2nc3ccccc3[nH]2)c(C)cc1Br", "activity score": "inconclusive: -41.3%"}, {"smiles": "CN(C)c1ccc(-c2nnc(-c3cccs3)o2)cc1", "activity score": "inactive: 81.9%"}, {"smiles": "O=C(COc1ccc2ccc(=O)oc2c1)N1CCc2ccccc21", "activity score": "inconclusive: -58%"}, {"smiles": "N#Cc1nc(-c2ccc(OCc3ccc(Cl)cc3)cc2)oc1NCCCn1ccnc1", "activity score": "inconclusive: -51.7%"}, {"smiles": "CS(=O)(=O)Nc1ccc(C(=O)Nc2ccc3c(c2)OCO3)cc1", "activity score": "inconclusive: -59.5%"}, {"smiles": "O=C(NCCC1=CCCCC1)C1CCC(CNc2nc(=S)[nH]c3ccccc23)CC1", "note": "(stereo unspecified)", "activity score": "inactive: 98.6%"}, {"smiles": "Cc1ccc(NC(=O)c2sc(Cl)nc2-c2ccccc2)cc1C", "activity score": "inconclusive: -53.7%"}, {"smiles": "O=c1[nH]c(=O)c2cc([N+](=O)[O-])cc([N+](=O)[O-])c2[nH]1", "activity score": "inconclusive: -59.4%"}, {"smiles": "O=C(c1cc(-c2ccc(O)cc2)on1)N1CCOCC1", "activity score": "inconclusive: -43.1%"}, {"smiles": "O=C(CSc1nnc(Cc2ccccc2)o1)c1cc(F)ccc1F", "activity score": "inconclusive: -52.2%"}, {"smiles": "COC(=O)Nc1nc(-c2ccccc2)c(C(=O)c2ccc(Cl)cc2)s1", "activity score": "inactive: 94.4%"}, {"smiles": "COc1ccc(C(=O)Nc2nnc(SCC(=O)NC3CCCC3)s2)c(OC)c1", "activity score": "inactive: 58.1%"}, {"smiles": "Cc1cc(C)cc(NS(=O)(=O)c2ccc(-c3cnc(C4CC4)o3)cc2)c1", "activity score": "inactive: 93.4%"}, {"smiles": "COc1cc(/C=C2\\COC/C(=C\\c3ccc(O)c(OC)c3)C2=O)ccc1O", "activity score": "inactive: 103%"}, {"smiles": "CC(C)OC(=O)/C(C#N)=C/c1cn(Cc2ccccc2)c2ccccc12", "activity score": "inactive: 74.8%"}, {"smiles": "O=C(CCS(=O)(=O)c1ccccc1)Nc1nc(-c2ccccn2)cs1", "activity score": "inconclusive: -56.3%"}, {"smiles": "COc1ccc(N2CCN(C(=O)c3ccc4c(c3)NC(=O)C(CSCc3cccc(F)c3)N4)CC2)cc1", "note": "(stereo unspecified)", "activity score": "inconclusive: -47.6%"}, {"smiles": "O=C1c2cccc3cc([N+](=O)[O-])cc(c23)C(=O)N1CCN1CCCC1", "activity score": "inactive: 97.8%"}, {"smiles": "c1coc(CNc2nc(-c3cccs3)cs2)c1", "activity score": "inactive: 107%"}, {"smiles": "O=c1[nH]c(CSc2ccccn2)nc2ccccc12", "activity score": "inconclusive: -48.8%"}, {"smiles": "CC1CCN(c2ccc(NC(=S)NC(=O)c3ccc(-c4cccc([N+](=O)[O-])c4)o3)cc2)CC1", "activity score": "inconclusive: -48.1%"}, {"smiles": "O=C(/C=C/c1cccc(Cl)c1)Nc1ccncc1", "activity score": "active: -112%"}, {"smiles": "COc1ccc(N2C(=O)c3ccccc3NC2c2ccc(OC)c(COc3ccccn3)c2)cc1", "note": "(stereo unspecified)", "activity score": "active: -76.9%"}, {"smiles": "CS(=O)(=O)N1N=C(c2ccco2)CC1c1ccc(Br)cc1", "note": "(stereo unspecified)", "activity score": "inconclusive: -57.6%"}, {"smiles": "O=C1C2C3C=CC(C3)C2C(=O)N1/N=C/c1cn(Cc2ccccc2)c2ccccc12", "note": "(stereo unspecified)", "activity score": "inactive: 66.5%"}, {"smiles": "Cc1ccc2nc(-c3ccncc3)cc(C(=O)Nc3ccc(OC(F)F)cc3)c2c1", "activity score": "inactive: 67.6%"}, {"smiles": "CC(C)CCn1c(SCc2ccc(Cl)cc2)nc2c1c(=O)[nH]c(=O)n2C", "activity score": "inactive: 57.2%"}, {"smiles": "CCOc1ccc(C2=Nn3c(nnc3-c3ccc(OC)cc3)SC2)cc1", "activity score": "inactive: 84.3%"}, {"smiles": "COC(=O)C1=C(C)NC(C)=C(C(=O)OCC(C)C)C1c1ccccc1[N+](=O)[O-]", "note": "(stereo unspecified)", "activity score": "inactive: 70.5%"}, {"smiles": "O=C(CCSc1nc2ccccc2s1)N/N=C/c1c(O)ccc2ccccc12", "activity score": "inactive: 65.9%"}, {"smiles": "CC(C)[C@@H](CO)NC(=O)c1ccc2c3n(nc2c1)-c1ccc(Cl)cc1CO3", "activity score": "active: -180%"}, {"smiles": "Fc1ccc(COc2ccccc2-c2ccnc3ncnn23)cc1", "activity score": "inconclusive: -40.7%"}, {"smiles": "C=CCSc1nc(=O)n2ccc(C)cc2n1", "activity score": "inconclusive: -54.4%"}, {"smiles": "Cc1oc(/N=C/c2ccc(Cl)cc2)c(C#N)c1C", "activity score": "inconclusive: -56.4%"}, {"smiles": "CCS(=O)(=O)c1ncc(Cl)c(C(=O)Nc2ccc(S(=O)(=O)N3CCC(C)CC3)cc2)n1", "activity score": "inactive: 65.1%"}, {"smiles": "Cc1ccc(-n2c(C)cc(/C=c3/sc4nc5ccccc5n4c3=O)c2C)cc1", "activity score": "inactive: 66.7%"}, {"smiles": "COc1ccc(CC(=O)Nc2ccc(-c3nc4cc(C)ccc4o3)c(O)c2)cc1OC", "activity score": "inconclusive: -56.1%"}, {"smiles": "Fc1ccccc1N1CCN(C2CCN(Cc3c[nH]c4ccccc34)CC2)CC1", "activity score": "inconclusive: -54.6%"}, {"smiles": "COc1ccc(Cn2c(SCc3ccccc3C)nc3cc(OC)c(OC)cc3c2=N)cc1", "activity score": "inactive: 92.9%"}, {"smiles": "COc1ccc2c(C)cc(N3CCOCC3)nc2c1", "activity score": "inconclusive: -55%"}, {"smiles": "COc1ccccc1NC(=O)CSc1nnc(-c2ccncc2)o1", "activity score": "inconclusive: -41.7%"}, {"smiles": "COC(=O)c1ccc(Cl)c(NC(=O)Cc2ccccc2[N+](=O)[O-])c1", "activity score": "inconclusive: -48.3%"}, {"smiles": "CCC(C)c1ccc(NC(=O)C2CCCN(c3ncccn3)C2)cc1", "note": "(stereo unspecified)", "activity score": "inconclusive: -58.4%"}, {"smiles": "Cc1ccc(N/N=C2\\CCS(=O)(=O)c3sccc32)cc1", "activity score": "active: -89.5%"}, {"smiles": "CSc1ccc2c(c1)C(N1CCN(C)CC1)Cc1ccc(F)cc1S2", "note": "(stereo unspecified)", "activity score": "inactive: 57.5%"}, {"smiles": "O=C(c1cc2cc(Cl)ccc2o1)N1CCCC1", "activity score": "inconclusive: -60.2%"}, {"smiles": "O=C(/C=C/c1ccc(Cl)c([N+](=O)[O-])c1)Nc1cccc(NC(=O)c2ccco2)c1", "activity score": "inconclusive: -42.5%"}, {"smiles": "O=C(NC(Nc1nc2ccc([N+](=O)[O-])cc2s1)(C(F)(F)F)C(F)(F)F)c1ccccc1Cl", "activity score": "inactive: 85.7%"}, {"smiles": "COc1cccc(OCC(=O)NNC(=O)C(=O)Nc2cccc(C)c2)c1", "activity score": "inconclusive: -60.9%"}, {"smiles": "Cc1ccc(NC(=S)N2CCC(c3nc4ccccc4s3)CC2)cc1", "activity score": "inconclusive: -60.2%"}, {"smiles": "S=C(Nc1ccccc1)Nc1ccc(OCc2ccc(Cl)cc2Cl)cc1", "activity score": "inactive: 96.3%"}, {"smiles": "Cc1ccc(-c2cc(C(=O)N3CCCCC3)c3ccccc3n2)cc1C", "activity score": "inconclusive: -46.5%"}, {"smiles": "O=C(Nc1ccc(N2CCOCC2)cc1)Nc1ccc2nc(-c3ccco3)c(-c3ccco3)nc2c1", "activity score": "inactive: 112%"}, {"smiles": "CCCOc1ccc(C(=O)NNC(=S)NC(=O)c2ccccc2)cc1", "activity score": "inactive: 79.6%"}, {"smiles": "COCCNc1oc(-c2ccc(F)cc2)nc1C#N", "activity score": "inconclusive: -58.9%"}, {"smiles": "CC1CCN(c2ccc(-c3cccc(NC(=O)C(F)(F)F)c3)nn2)CC1", "activity score": "inactive: 103%"}, {"smiles": "CSC1=NC(C)(C)C=C(/C=C/c2c(Cl)cccc2Cl)N1", "activity score": "inconclusive: -50%"}, {"smiles": "Cc1cc(OCCN2CCOCC2)ccc1Cl", "activity score": "active: -75.9%"}, {"smiles": "C[C@H](NS(=O)(=O)c1ccc(Cl)cc1)C(=O)OCC(=O)NC(=O)Nc1ccc2c(c1)OCCO2", "activity score": "inconclusive: -32.4%"}, {"smiles": "O=c1[nH]cnc2cc(-c3ccc(Br)cc3)sc12", "activity score": "inconclusive: -57%"}, {"smiles": "Cc1cc(=O)cc(C)n1-c1ccc(Cl)cc1", "activity score": "inconclusive: -33.1%"}, {"smiles": "Cc1[nH]c2ccccc2c1C(=O)CN1C(=O)NC2(CC(C)CC(C)(C)C2)C1=O", "note": "(stereo unspecified)", "activity score": "inactive: 56.6%"}, {"smiles": "COC(=O)C1=C(CN2CCCc3ccccc32)NC(=O)NC1c1ccc(F)cc1", "note": "(stereo unspecified)", "activity score": "inactive: 79.2%"}, {"smiles": "O=C(N/N=C\\c1ccc([N+](=O)[O-])o1)c1cncc(Br)c1", "activity score": "inconclusive: -51.2%"}, {"smiles": "CCOC(=O)C1CCCN(C(=O)c2sc3nc(-c4ccc(F)cc4)cn3c2C)C1", "note": "(stereo unspecified)", "activity score": "inconclusive: -29%"}, {"smiles": "CCCCNc1ncnc2c1cnn2-c1ccccc1", "activity score": "active: -260%"}, {"smiles": "OCC1(CO)COC(/C=C/c2ccccc2)=N1", "activity score": "inconclusive: -59.8%"}, {"smiles": "CC(=O)Nc1sc(NC(=O)c2ccc(C)cc2)nc1-c1cccs1", "activity score": "inconclusive: -53.7%"}, {"smiles": "Cc1ccc(Cn2c(O)c(N=NC(=S)Nc3ccccc3F)c3ccccc32)cc1", "activity score": "inactive: 71.4%"}, {"smiles": "COc1ccc(OC)c(-c2cnc(OC(C)(C)C)nc2OC(C)(C)C)c1", "activity score": "inconclusive: -50%"}, {"smiles": "O=C(Nc1ccc(Cl)cc1Cl)c1cc2ccccc2o1", "activity score": "active: -110%"}, {"smiles": "C=CC[n+]1c(-c2ccc(C)cc2)csc1Nc1ccc(NC(C)=O)cc1", "activity score": "inactive: 100%"}, {"smiles": "NS(=O)(=O)c1cc(C(=O)Nc2ccc3c(c2)OCCCO3)ccc1Cl", "activity score": "inconclusive: -54.8%"}, {"smiles": "COC(C(=O)N/N=C(\\C)c1ccc(C)cc1)c1ccccc1", "note": "(stereo unspecified)", "activity score": "inconclusive: -43.3%"}, {"smiles": "CCn1c2ccccc2c2cc(NC(=O)c3cc(OC)cc(OC)c3)ccc21", "activity score": "inactive: 101%"}, {"smiles": "O=C(/C=C/Nc1ccc(Br)cc1F)c1ccco1", "activity score": "inactive: 57.4%"}, {"smiles": "O=C(Nc1ccncc1)c1ccc(N2CCCC2=O)cc1", "activity score": "inconclusive: -59%"}]}]}
